The record followed here is paper PMC5852078.

Amino acid sequences for entries named in this document (tags omitted). Residues count along the entry.
UniProt P10747, residues 19-220: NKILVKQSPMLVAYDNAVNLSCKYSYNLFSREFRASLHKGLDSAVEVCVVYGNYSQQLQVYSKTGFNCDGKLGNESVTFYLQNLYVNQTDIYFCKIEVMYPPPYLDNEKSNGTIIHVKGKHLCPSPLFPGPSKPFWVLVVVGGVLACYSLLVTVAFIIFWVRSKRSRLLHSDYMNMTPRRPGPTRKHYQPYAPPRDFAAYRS
UniProt P31041, residues 20-218: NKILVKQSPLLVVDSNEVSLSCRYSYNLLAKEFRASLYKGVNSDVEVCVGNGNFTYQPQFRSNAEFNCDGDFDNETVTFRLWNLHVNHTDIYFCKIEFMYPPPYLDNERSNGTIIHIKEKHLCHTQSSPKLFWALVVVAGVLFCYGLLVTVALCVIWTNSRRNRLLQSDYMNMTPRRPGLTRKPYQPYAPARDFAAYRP
UniProt O43639: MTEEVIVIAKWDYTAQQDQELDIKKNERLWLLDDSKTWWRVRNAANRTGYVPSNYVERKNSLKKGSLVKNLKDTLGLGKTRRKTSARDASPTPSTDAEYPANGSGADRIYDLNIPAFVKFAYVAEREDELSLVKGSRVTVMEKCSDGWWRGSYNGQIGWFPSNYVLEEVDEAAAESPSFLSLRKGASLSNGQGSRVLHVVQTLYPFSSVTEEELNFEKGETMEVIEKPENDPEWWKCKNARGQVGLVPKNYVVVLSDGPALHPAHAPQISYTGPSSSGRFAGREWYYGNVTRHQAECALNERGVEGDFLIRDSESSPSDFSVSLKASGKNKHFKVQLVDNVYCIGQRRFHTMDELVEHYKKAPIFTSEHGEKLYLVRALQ

Results are given in words; binding and its absence hold for the method and conditions named. Binding seen in cells or lysates may run through a third protein. Some results given as binding are weak or reduced against the parent protein; the word gives no strength.

For test [1], the target named is human CD28 WT, transfected (human) (UniProt P10747). Description: co-IP; Nck and Vav1 co-expressed, with hCD28 (Supplementary Fig. 8c).
The target is the same in test [2]. Description: co-IP; exogenously expressed Vav1 or Nck, each expressed alone, with hCD28 after stimulation with B7.1/CD80-expressing APC (Supplementary Fig. 8a, b).
The target of test [3] is human CD28 (human (endogenous in primary CD4+ T cells)) (UniProt P10747). The experiment in a line: co-IP; human primary CD4+ T cells stimulated 5 min with B7-negative or Dap3/B7 cells (p85 also after agonistic anti-CD28 Abs); 1% Nonidet P-40 lysis buffer, 150 mM NaCl, 20 mM Tris-HCl pH 7.5; anti-CD28 (CD28.2) IP on Protein-G Sepharose; western blot. (In general: A western blot detects proteins with antibodies after separation by electrophoresis.)

Test [4] deals with human CD28 WT, transfected (human) (UniProt P10747). The experiment in a line: co-IP; Nck and Vav1 co-expressed, with hCD28 (Supplementary Fig. 8c). This is another data set of the same source.
For test [5], the target named is mouse CD28 (mouse (endogenous in splenic CD4+ T cells)) (UniProt P31041). The experiment in a line: co-IP; pooled mouse splenic CD4+ T cells stimulated 5 min with B7-negative or B7.1-expressing RAW cells (p85 also after agonistic anti-CD28 Abs); 1% Nonidet P-40 lysis buffer; anti-mouse CD28 (37.51) IP via rabbit anti-hamster on Protein-A Sepharose; western blot.

On to “exogenously expressed Nck (from UniProt O43639 1-380)”, for which the binding result in test [1] and in test [2] was “binds” each time.

B1: Vav1 (human, endogenous) (protein, UniProt P15498 1-845)
chain: MELWRQCTHWLIQCRVLPPSHRVTWDGAQVCELAQALRDGVLLCQLLNNLLPHAINLREVNLRPQMSQFLCLKNIRTFLSTCCEKFGLKRSELFEAFDLFDVQDFGKVIYTLSALSWTPIAQNRGIMPFPTEEESVGDEDIYSGLSDQIDDTVEEDEDLYDCVENEEAEGDEIYEDLMRSEPVSMPPKMTEYDKRCCCLREIQQTEEKYTDTLGSIQQHFLKPLQRFLKPQDIEIIFINIEDLLRVHTHFLKEMKEALGTPGAANLYQVFIKYKERFLVYGRYCSQVESASKHLDRVAAAREDVQMKLEECSQRANNGRFTLRDLLMVPMQRVLKYHLLLQELVKHTQEAMEKENLRLALDAMRDLAQCVNEVKRDNETLRQITNFQLSIENLDQSLAHYGRPKIDGELKITSVERRSKMDRYAFLLDKALLICKRRGDSYDLKDFVNLHSFQVRDDSSGDRDNKKWSHMFLLIEDQGAQGYELFFKTRELKKKWMEQFEMAISNIYPENATANGHDFQMFSFEETTSCKACQMLLRGTFYQGYRCHRCRASAHKECLGRVPPCGRHGQDFPGTMKKDKLHRRAQDKKRNELGLPKMEVFQEYYGLPPPPGAIGPFLRLNPGDIVELTKAEAEQNWWEGRNTSTNEIGWFPCNRVKPYVHGPPQDLSVHLWYAGPMERAGAESILANRSDGTFLVRQRVKDAAEFAISIKYNVEVKHIKIMTAEGLYRITEKKAFRGLTELVEFYQQNSLKDCFKSLDTTLQFPFKEPEKRTISRPAVGSTKYFGTAKARYDFCARDRSELSLKEGDIIKILNKKGQQGWWRGEIYGRVGWFPANYVEEDYSEYC
With B1, the binding entry in test [3] is on record as “binds”.

B2: exogenously expressed Vav1 (protein, UniProt P15498 1-845)
chain: B1 chain
Turning to B2, the binding entry in test [4] is “no binding (condition: with Nck co-expressed)”; in test [2], “binds”.

B3: Vav1 (mouse, endogenous) (protein, UniProt P27870 1-845)
chain: MELWRQCTHWLIQCRVLPPSHRVTWEGAQVCELAQALRDGVLLCQLLNNLLPQAINLREVNLRPQMSQFLCLKNIRTFLSTCCEKFGLKRSELFEAFDLFDVQDFGKVIYTLSALSWTPIAQNKGIMPFPTEDSALNDEDIYSGLSDQIDDTAEEDEDLYDCVENEEAEGDEIYEDLMRLESVPTPPKMTEYDKRCCCLREIQQTEEKYTDTLGSIQQHFMKPLQRFLKPQDMETIFVNIEELFSVHTHFLKELKDALAGPGATTLYQVFIKYKERFLVYGRYCSQVESASKHLDQVATAREDVQMKLEECSQRANNGRFTLRDLLMVPMQRVLKYHLLLQELVKHTQDATEKENLRLALDAMRDLAQCVNEVKRDNETLRQITNFQLSIENLDQSLANYGRPKIDGELKITSVERRSKTDRYAFLLDKALLICKRRGDSYDLKASVNLHSFQVRDDSSGERDNKKWSHMFLLIEDQGAQGYELFFKTRELKKKWMEQFEMAISNIYPENATANGHDFQMFSFEETTSCKACQMLLRGTFYQGYRCYRCRAPAHKECLGRVPPCGRHGQDFAGTMKKDKLHRRAQDKKRNELGLPKMEVFQEYYGIPPPPGAFGPFLRLNPGDIVELTKAEAEHNWWEGRNTATNEVGWFPCNRVHPYVHGPPQDLSVHLWYAGPMERAGAEGILTNRSDGTYLVRQRVKDTAEFAISIKYNVEVKHIKIMTSEGLYRITEKKAFRGLLELVEFYQQNSLKDCFKSLDTTLQFPYKEPERRAISKPPAGSTKYFGTAKARYDFCARDRSELSLKEGDIIKILNKKGQQGWWRGEIYGRIGWFPSNYVEEDYSEYC
As to B3, the binding entry in test [5] was “binds”.
